Reference: the supplement of paper PMC4967469
IC50 is the fitted dose that halves viability relative to control wells, and lower means more sensitive; where the fit passes the top or lowest dose, that dose stands as a limit. AUC is the area under the same curve over the 256-fold range up to the top dose, as a fraction; the more sensitive the line, the further below 1. For some assays here: The top dose, if marked as inferred, is not printed in the source and was worked back from the curve model.

Assays:
Experiment in all cases: Viability of human cancer cell lines after 72 h of drug (GDSC screen)
[1] = compound: COc1cc2ncnc(Nc3ccc(F)c(Cl)c3)c2cc1OCCCN1CCOCC1 [Gefitinib]; conditions: top dose 0.5 µM
Description: (§1)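 Human cancer cell lines in 384-well plates, medium with 10% serum, drug for 72 h over a 256-fold dose range (nine 2-fold or five 4-fold steps up to the top dose). Adherent lines were fixed and stained with the nucleic acid dye Syto60, suspension lines read with resazurin; signal relative to control wells, capped at 0 and 100%. One two-parameter sigmoid per drug and line, fitted in a mixed model over all curves with the slope shared within a line.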

[2] = compound: CCC1=C[C@@H]2CN(C1)Cc1c([nH]c3ccccc13)[C@@](C(=O)OC)(c1cc3c(cc1OC)N(C)[C@H]1[C@@](O)(C(=O)OC)[C@H](OC(C)=O)[C@]4(CC)C=CCN5CC[C@]31[C@@H]54)C2 [Vinorelbine]; conditions: top dose 0.064 µM; top dose inferred
Description: as §1

[3] = compound: N[C@@H](CSC(c1ccccc1)(c1ccccc1)c1ccccc1)C(=O)O [S-Trityl-L-cysteine]; conditions: top dose 5.12 µM; top dose inferred
Description: as §1

[4] = compound: COc1cc2nccc(Oc3ccc(NC(=O)C4(C(=O)Nc5ccc(F)cc5)CC4)cc3)c2cc1OC [XL-184]; conditions: top dose 5.12 µM; top dose inferred
Description: as §1

[5] = compound: COc1cc2ncnc(Nc3cc(Br)c(O)c(Br)c3)c2cc1OC [WHI-P97]; conditions: top dose 10.24 µM; top dose inferred
Description: as §1

[6] = compound: CNCc1ccc(-c2[nH]c3cc(F)cc4c3c2CCNC4=O)cc1 [AG-014699]; conditions: top dose 5 µM; top dose inferred
Description: as §1

[7] = compound: C=CC(=O)Nc1cc(NC(=O)c2ccc(C)c(NC(=O)c3ccno3)c2)cc(C(F)(F)F)c1 [QL-XI-92]; conditions: top dose 10.24 µM; top dose inferred
Description: as §1

[8] = compound: N=C(N)NC(=N)NCCc1ccccc1 [Phenformin]; conditions: top dose 4000 µM; top dose inferred
Description: as §1

[9] = compound: O=c1cc(CN2CCOCC2)occ1OCCCCCSc1ccnc2cc(C(F)(F)F)ccc12 [EHT 1864]; conditions: top dose 10 µM; top dose inferred
Description: as §1

[10] = compound: O=c1cc(N2CCOCC2)oc2c(-c3cccc4c3sc3ccccc34)cccc12 [NU-7441]; conditions: top dose 2 µM; top dose inferred
Description: as §1

Cell Line | AUC [1] | IC50 [1] [µM] | AUC [2] | IC50 [2] [µM] | AUC [3] | IC50 [3] [µM] | AUC [4] | IC50 [4] [µM] | AUC [5] | IC50 [5] [µM] | AUC [6] | IC50 [6] [µM] | AUC [7] | IC50 [7] [µM] | AUC [8] | IC50 [8] [µM] | AUC [9] | IC50 [9] [µM] | AUC [10] | IC50 [10] [µM]
COLO-320-HSR (large intestine, suspension) | 0.991 | > 0.5 | 0.98 | > 0.064 | 0.691 | 1.01 | 0.93 | > 5.12 | 0.978 | > 10.2 | 0.992 | > 5 | 0.985 | > 10.2 | 0.677 | 722 | 0.978 | > 10 | 0.986 | > 2
COLO-684 (endometrium, suspension) | 0.985 | > 0.5 | 0.684 | 0.0141 | 0.798 | 2.8 | 0.949 | > 5.12 | 0.974 | > 10.2 | 0.966 | > 5 | 0.892 | > 10.2 | 0.576 | 413 | 0.955 | > 10 | 0.969 | > 2
COLO-800 (melanoma, adherent) | 0.982 | > 0.5 | 0.612 | 0.00804 | 0.96 | > 5.12 | 0.958 | > 5.12 | 0.983 | > 10.2 | 0.627 | 0.69 | 0.982 | > 10.2 | 0.762 | 1390 | 0.904 | > 10 | 0.986 | > 2
COR-L95 (small cell lung carcinoma, adherent) | 0.987 | > 0.5 | 0.959 | > 0.064 | 0.942 | > 5.12 | 0.97 | > 5.12 | 0.982 | > 10.2 | 0.987 | > 5 | 0.958 | > 10.2 | 0.384 | 114 | 0.943 | > 10 | 0.983 | > 2
COR-L279 (small cell lung carcinoma, suspension) | 0.985 | > 0.5 | 0.746 | 0.0184 | 0.824 | 2.62 | 0.885 | 4.56 | 0.94 | > 10.2 | 0.99 | > 5 | 0.985 | > 10.2 | 0.743 | 1130 | 0.952 | > 10 | 0.991 | > 2
CP66-MEL (melanoma, adherent) | 0.986 | > 0.5 | 0.834 | 0.05 | 0.765 | 2.13 | 0.982 | > 5.12 | 0.964 | > 10.2 | 0.985 | > 5 | 0.976 | > 10.2 | 0.492 | 238 | 0.986 | > 10 | 0.978 | > 2
CPC-N (small cell lung carcinoma, suspension) | 0.982 | > 0.5 | 0.92 | > 0.064 | 0.845 | 4.22 | 0.934 | > 5.12 | 0.977 | > 10.2 | 0.98 | > 5 | 0.952 | > 10.2 | 0.572 | 400 | 0.922 | > 10 | 0.947 | > 2
CW-2 (large intestine, adherent) | 0.971 | > 0.5 | 0.988 | > 0.064 | 0.989 | > 5.12 | 0.972 | > 5.12 | 0.986 | > 10.2 | 0.983 | > 5 | 0.967 | > 10.2 | 0.293 | 61.8 | 0.898 | > 10 | 0.964 | > 2
D-247MG (glioma, adherent) | 0.97 | > 0.5 | 0.665 | 0.0137 | 0.978 | > 5.12 | 0.435 | 0.199 | 0.907 | > 10.2 | 0.935 | > 5 | 0.858 | > 10.2 | 0.381 | 104 | 0.9 | > 10 | 0.975 | > 2
D-263MG (glioma, adherent) | 0.972 | > 0.5 | 0.929 | > 0.064 | 0.967 | > 5.12 | 0.977 | > 5.12 | 0.983 | > 10.2 | 0.948 | > 5 | 0.982 | > 10.2 | 0.792 | 2240 | 0.959 | > 10 | 0.898 | > 2
D-283MED (medulloblastoma, adherent) | 0.976 | > 0.5 | 0.964 | > 0.064 | 0.989 | > 5.12 | 0.99 | > 5.12 | 0.991 | > 10.2 | 0.969 | > 5 | 0.991 | > 10.2 | 0.853 | 2690 | 0.983 | > 10 | 0.924 | > 2
D-502MG (glioma, adherent) | 0.966 | > 0.5 | 0.852 | > 0.064 | 0.967 | > 5.12 | 0.861 | > 5.12 | 0.929 | > 10.2 | 0.94 | > 5 | 0.873 | > 10.2 | 0.848 | > 4000 | 0.973 | > 10 | 0.95 | > 2
DND-41 (T-cell leukaemia, suspension) | 0.987 | > 0.5 | 0.651 | 0.00992 | 0.815 | 2.4 | 0.939 | > 5.12 | 0.953 | > 10.2 | 0.984 | > 5 | 0.849 | 6.37 | 0.687 | 777 | 0.987 | > 10 | 0.948 | > 2
